{"source": "the supplement of paper PMC12423691", "binders": {"B1": {"name": "ZNF382, Q96SR6 (protein)", "chain": "MPLQGSVSFKDVTVDFTQEEWQQLDPAQKALYRDVMLENYCHFVSVGFHMAKPDMIRKLEQGEELWTQRIFPSYSYLEEDGKTEDVLVKFKEYQDRHSRPLIFINHKKLIKERSNIYGKTFTLGKNRISKTILCEYKPDGKVLKNISELVIRNISPIKEKFGDSTGWEKSLLNTKHEKIHPAVNLHKQTERVLSGKQELIQHQKVQAPEQPFDHNECEKSFLMKGMLFTHTRAHRGERTFEYNKDGIAFIEKSSLSVHPSNLMEKKPSAYNKYGKFLCRKPVFIMPQRPQTEEKPFHCPYCGNNFRRKSYLIEHQRIHTGEKPYVCNQCGKAFRQKTALTLHEKTHIEGKPFICIDCGKSFRQKATLTRHHKTHTGEKAYECPQCGSAFRKKSYLIDHQRTHTGEKPYQCNECGKAFIQKTTLTVHQRTHTGEKPYICNECGKSFCQKTTLTLHQRIHTGEKPYICNECGKSFRQKAILTVHHRIHTGEKSNGCPQCGKAFSRKSNLIRHQKTHTGEKPYECKQCGKFFSCKSNLIVHQKTHKVETTGIQ"}, "B2": {"name": "ZNF542P, Q5EBM4 (protein)", "chain": "MLENYQNLVWLGLSISKSVISLLEKRKLPWIMAKEEIRGPLPGYFKVSEMTISQEPKAKTRTLFGKDVPGAEIKELSAKRAINEVLSQFDTVIKCTRNVCKECGNLYCHNMQLTLHKRNHTQKKCNQCLDCGKYFTRQSTLIQHQRIHTGERPYKCNECIKTFNQRAHLT"}, "B3": {"name": "NLRC4, Q9NPP4 (protein)", "chain": "MNFIKDNSRALIQRMGMTVIKQITDDLFVWNVLNREEVNIICCEKVEQDAARGIIHMILKKGSESCNLFLKSLKEWNYPLFQDLNGQSLFHQTSEGDLDDLAQDLKDLYHTPSFLNFYPLGEDIDIIFNLKSTFTEPVLWRKDQHHHRVEQLTLNGLLQALQSPCIIEGESGKGKSTLLQRIAMLWGSGKCKALTKFKFVFFLRLSRAQGGLFETLCDQLLDIPGTIRKQTFMAMLLKLRQRVLFLLDGYNEFKPQNCPEIEALIKENHRFKNMVIVTTTTECLRHIRQFGALTAEVGDMTEDSAQALIREVLIKELAEGLLLQIQKSRCLRNLMKTPLFVVITCAIQMGESEFHSHTQTTLFHTFYDLLIQKNKHKHKGVAASDFIRSLDHCGDLALEGVFSHKFDFELQDVSSVNEDVLLTTGLLCKYTAQRFKPKYKFFHKSFQEYTAGRRLSSLLTSHEPEEVTKGNGYLQKMVSISDITSTYSSLLRYTCGSSVEATRAVMKHLAAVYQHGCLLGLSIAKRPLWRQESLQSVKNTTEQEILKAININSFVECGIHLYQESTSKSALSQEFEAFFQGKSLYINSGNIPDYLFDFFEHLPNCASALDFIKLDFYGGAMASWEKAAEDTGGIHMEEAPETYIPSRAVSLFFNWKQEFRTLEVTLRDFSKLNKQDIRYLGKIFSSATSLRLQIKRCAGVAGSLSLVLSTCKNIYSLMVEASPLTIEDERHITSVTNLKTLSIHDLQNQRLPGGLTDSLGNLKNLTKLIMDNIKMNEEDAIKLAEGLKNLKKMCLFHLTHLSDIGEGMDYIVKSLSSEPCDLEEIQLVSCCLSANAVKILAQNLHNLVKLSILDLSENYLEKDGNEALHELIDRMNVLEQLTALMLPWGCDVQGSLSSLLKHLEEVPQLVKLGLKNWRLTDTEIRILGAFFGKNPLKNFQQLNLAGNRVSSDGWLAFMGVFENLKQLVFFDFSTKEFLPDPALVRKLSQVLSKLTFLQEARLVGWQFDDDDLSVITGAFKLVTA"}, "B4": {"name": "SETD6, Q8TBK2 (protein)", "chain": "MATQAKRPRVAGPVDGGDLDPVACFLSWCRRVGLELSPKVSERAGGRRTRGGARAALTSPPAQVAVSRQGTVAGYGMVARESVQAGELLFVVPRAALLSQHTCSIGGLLERERVALQSQSGWVPLLLALLHELQAPASRWRPYFALWPELGRLEHPMFWPEEERRCLLQGTGVPEAVEKDLANIRSEYQSIVLPFMEAHPDLFSLRVRSLELYHQLVALVMAYSFQEPLEEEEDEKEPNSPVMVPAADILNHLANHNANLEYSANCLRMVATQPIPKGHEIFNTYGQMANWQLIHMYGFVEPYPDNTDDTADIQMVTVREAALQGTKTEAERHLVYERWDFLCKLEMVGEEGAFVIGREEVLTEEELTTTLKVLCMPAEEFRELKDQDGGGDDKREEGSLTITNIPKLKASWRQLLQNSVLLTLQTYATDLKTDQGLLSNKEVYAKLSWREQQALQVRYGQKMILHQLLELTS"}, "B5": {"name": "SMAD3, P84022 (protein)", "chain": "MSSILPFTPPIVKRLLGWKKGEQNGQEEKWCEKAVKSLVKKLKKTGQLDELEKAITTQNVNTKCITIPRSLDGRLQVSHRKGLPHVIYCRLWRWPDLHSHHELRAMELCEFAFNMKKDEVCVNPYHYQRVETPVLPPVLVPRHTEIPAEFPPLDDYSHSIPENTNFPAGIEPQSNIPETPPPGYLSEDGETSDHQMNHSMDAGSPNLSPNPMSPAHNNLDLQPVTYCEPAFWCSISYYELNQRVGETFHASQPSMTVDGFTDPSNSERFCLGLLSNVNRNAAVELTRRHIGRGVRLYYIGGEVFAECLSDSAIFVQSPNCNQRYGWHPATVCKIPPGCNLKIFNNQEFAALLAQSVNQGFEAVYQLTRMCTIRMSFVKGWGAEYRRQTVTSTPCWIELHLNGPLQWLDKVLTQMGSPSIRCSSVS"}, "B6": {"name": "CRHR2, Q13324 (protein)", "chain": "MDAALLHSLLEANCSLALAEELLLDGWGPPLDPEGPYSYCNTTLDQIGTCWPRSAAGALVERPCPEYFNGVKYNTTRNAYRECLENGTWASKINYSQCEPILDDKQRKYDLHYRIALVVNYLGHCVSVAALVAAFLLFLALRSIRCLRNVIHWNLITTFILRNVMWFLLQLVDHEVHESNEVWCRCITTIFNYFVVTNFFWMFVEGCYLHTAIVMTYSTERLRKCLFLFIGWCIPFPIIVAWAIGKLYYENEQCWFGKEPGDLVDYIYQGPIILVLLINFVFLFNIVRILMTKLRASTTSETIQYRKAVKATLVLLPLLGITYMLFFVNPGEDDLSQIMFIYFNSFLQSFQGFFVSVFYCFFNGEVRSAVRKRWHRWQDHHSLRVPMARAMSIPTSPTRISFHSIKQTAAV"}, "B7": {"name": "PHTF1, Q9UMS5 (protein)", "chain": "MASNERDAISWYQKKIGAYDQQIWEKSIEQTQIKGLKNKPKKMGHIKPDLIDVDLIRGSTFAKAKPEIPWTSLTRKGLVRVVFFPLFSNWWIQVTSLRIFVWLLLLYFMQVIAIVLYLMMPIVNISEVLGPLCLMLLMGTVHCQIVSTQITRPSGNNGNRRRRKLRKTVNGDGSRENGNNSSDKVRGIETLESVPIIGGFWETIFGNRIKRVKLISNKGTETDNDPSCVHPIIKRRQCRPEIRMWQTREKAKFSDGEKCRREAFRRLGNGVSDDLSSEEDGEARTQMILLRRSVEGASSDNGCEVKNRKSILSRHLNSQVKKTTTRWCHIVRDSDSLAESEFESAAFSQGSRSGVSGGSRSLNMSRRDSESTRHDSETEDMLWDDLLHGPECRSSVTSDSEGAHVNTLHSGTKRDPKEDVFQQNHLFWLQNSSPSSDRVSAIIWEGNECKKMDMSVLEISGIIMSRVNAYQQGVGYQMLGNVVTIGLAFFPFLHRLFREKSLDQLKSISAEEILTLFCGAPPVTPIIVLSIINFFERLCLTWMFFFMMCVAERTYKQRFLFAKLFSHITSARKARKYEIPHFRLKKVENIKIWLSLRSYLKRRGPQRSVDVVVSSVFLLTLSIAFICCAQVLQGHKTFLNDAYNWEFLIWETALLLFLLRLASLGSETNKKYSNVSILLTEQINLYLKMEKKPNKKEQLTLVNNVLKLSTKLLKELDTPFRLYGLTMNPLIYNITRVVILSAVSGVISDLLGFNIRLWKIKS"}, "B8": {"name": "RFX4, Q33E94 (protein)", "chain": "MHCGLLEEPDMDSTESWIERCLNESENKRYSSHTSLGNVSNDENEEKENNRASKPHSTPATLQWLEENYEIAEGVCIPRSALYMHYLDFCEKNDTQPVNAASFGKIIRQQFPQLTTRRLGTRGQSKYHYYGIAVKESSQYYDVMYSKKGAAWVSETGKKEVSKQTVAYSPRSKLGTLLPEFPNVKDLNLPASLPEEKVSTFIMMYRTHCQRILDTVIRANFDEVQSFLLHFWQGMPPHMLPVLGSSTVVNIVGVCDSILYKAISGVLMPTVLQALPDSLTQVIRKFAKQLDEWLKVALHDLPENLRNIKFELSRRFSQILRRQTSLNHLCQASRTVIHSADITFQMLEDWRNVDLNSITKQTLYTMEDSRDEHRKLITQLYQEFDHLLEEQSPIESYIEWLDTMVDRCVVKVAAKRQGSLKKVAQQFLLMWSCFGTRVIRDMTLHSAPSFGSFHLIHLMFDDYVLYLLESLHCQERANELMRAMKGEGSTAEVREEIILTEAAAPTPSPVPSFSPAKSATSVEVPPPSSPVSNPSPEYTGLSTTGAMQSYTWSLTYTVTTAAGSPAENSQQLPCMRNTHVPSSSVTHRIPVYPHREEHGYTGSYNYGSYGNQHPHPMQSQYPALPHDTAISGPLHYAPYHRSSAQYPFNSPTSRMEPCLMSSTPRLHPTPVTPRWPEVPSANTCYTSPSVHSARYGNSSDMYTPLTTRRNSEYEHMQHFPGFAYINGEASTGWAK"}, "B9": {"name": "ESRRG, P62508 (protein)", "chain": "MDSVELCLPESFSLHYEEELLCRMSNKDRHIDSSCSSFIKTEPSSPASLTDSVNHHSPGGSSDASGSYSSTMNGHQNGLDSPPLYPSAPILGGSGPVRKLYDDCSSTIVEDPQTKCEYMLNSMPKRLCLVCGDIASGYHYGVASCEACKAFFKRTIQGNIEYSCPATNECEITKRRRKSCQACRFMKCLKVGMLKEGVRLDRVRGGRQKYKRRIDAENSPYLNPQLVQPAKKPYNKIVSHLLVAEPEKIYAMPDPTVPDSDIKALTTLCDLADRELVVIIGWAKHIPGFSTLSLADQMSLLQSAWMEILILGVVYRSLSFEDELVYADDYIMDEDQSKLAGLLDLNNAILQLVKKYKSMKLEKEEFVTLKAIALANSDSMHIEDVEAVQKLQDVLHEALQDYEAGQHMEDPRRAGKMLMTLPLLRQTSTKAVQHFYNIKLEGKVPMHKLFLEMLEAKV"}}, "note": "Some of the results follow. Binding of human transcription factors and regulators to the viral nucleoprotein by AlphaScreen, crude cell-free proteins, amounts not normalised, one pass. Fold of the Venus control; higher = more signal. No active / inactive call. Single-pass screen; sequences are the whole Swiss-Prot entries looked up by name.", "data": [{"target": "nucleoprotein N of Crimean-Congo hemorrhagic fever virus", "assay": "AlphaScreen luminescence signal relative to Venus negative control (fold); higher = stronger binding to CCHFV N", "method": "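AlphaScreen binding of cell-free made, FLAG-GST-tagged human transcription factors and regulators (crude translation products) to biotinylated N protein; signal as fold of the FLAG-GST-Venus control. One pass.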", "values": [{"binder": "B1", "AlphaScreen luminescence signal": 3.26}, {"binder": "B2", "AlphaScreen luminescence signal": 1.53}, {"binder": "B3", "AlphaScreen luminescence signal": 2.47}, {"binder": "B4", "AlphaScreen luminescence signal": 1.72}, {"binder": "B5", "AlphaScreen luminescence signal": 5.35}, {"binder": "B6", "AlphaScreen luminescence signal": 3.44}, {"binder": "B7", "AlphaScreen luminescence signal": 3.81}, {"binder": "B8", "AlphaScreen luminescence signal": 2.19}, {"binder": "B9", "AlphaScreen luminescence signal": 4.93}]}]}
